Test results reported in PubChem BioAssay AID1508624 (National Center for Advancing Translational Sciences (NCATS), 2021).
About 120 (0.25%) of roughly 48,000 compounds were called active. Inconclusive results (about 4%) are left out. Calls follow the shape of the dose curve; as a rule, active = well fitted activation curve with a large enough effect; inconclusive = small, poorly fitted or top-dose-only effect, or another doubt; inactive = no such curve, though single readings can be large or run the other way. Some of the results follow.

experiment: Primary qHTS for Identification of Small Molecule Activators of Huntingtin-Antisense Promoter Activity; conditions: HEK293 HTT-AS promoter firefly luciferase reporter, 24 h; series mostly up to 57.5 µM; activity change, positive = activation: at the top concentration; also: nearly all actives have a fitted effect of over 55% in size
In short: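 Quantitative HTS used concentration series of up to 57.5 uM final on HEK293 luciferase reporter cells, 24 h at 37 degrees C. Readout was Dual-Glo firefly luminescence.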

Activity change, positive = activation, inactive:
CCCCn1c(SCC(=O)Nc2ccc(OCC)cc2)nc2ccsc2c1=O -5.35%
COc1cc(OC)c(NC(=O)c2noc3c2CSc2ccccc2-3)cc1Cl -5.67%
Cc1ccc(C)c(NC(=O)CSc2nnc(-c3cc4occc4n3C)n2-c2ccccc2C)c1 -25.7%
Cc1ccc(NS(=O)(=O)c2cc3[nH]c(=O)c(=O)[nH]c3cc2C)cc1N(C)C -20.9%
Cc1ccc(CNC(=O)CSc2ncc3c(n2)-c2ccc(Cl)cc2N(Cc2ccccc2)S3(=O)=O)cc1 10.7%
Cc1ncc(CO)c(CO)c1O -13.7%
Cc1ccc(NC(=O)CCCn2c(=O)c3cccn3c3cccnc32)cc1C -7.02%
CCc1ccccc1NC(=O)[C@@H](c1ccccc1)N1Cc2ccccc2C1=O -15.5%
COCCCNC(=O)c1ccc2c(c1)nc(C)n2-c1cccc(C)c1 -19.6%
O=C(Nc1ccc(C(=O)OCc2cc(=O)n3nc(C4CC4)sc3n2)cc1)c1cccc(F)c1 0%
CCN(c1ccccc1)S(=O)(=O)c1ccc(NC(=O)c2cc(=O)c3ccccc3o2)cc1 -9.2%
O=C(Nc1ccc(F)cc1)C1CCN(S(=O)(=O)c2ccc3c(c2)CCCN3C(=O)C2CCC2)CC1 -29.9%
CCOC(=O)c1c(S(=O)(=O)N2CCC(C(=O)Nc3ncccc3C)CC2)c(C)n(C)c1C 0%
CCOC(=O)c1cc(-c2ccc(OC)cc2)n(CCC(=O)NC2CCCCC2)c1C -29.4%
COc1ccc2c(CNC3CCCCCC3)c(C(=O)O)n(Cc3ccccc3F)c2c1 -21.6%
Cc1c(C(=O)OC2CCCCC2)[nH]c2c1C(=O)CC(c1ccc(C(C)(C)C)cc1)C2 (centres undefined) -5.26%
CCC(=O)N1CCc2cc(Br)cc(S(=O)(=O)CCC(=O)N3CCN(c4cc(C)ccc4C)CC3)c21 19.2%
CCCc1nnc(NC(=O)c2cc(=O)c3cc(C)c(C)cc3o2)s1 6.19%
CCOC(=O)c1cnc2ccc(C)cc2c1Nc1ccc(N(CC)CC)cc1 -80.8%
CCOc1ccc(NC(=O)CCCc2nnc3n(C)c(=O)c4sccc4n23)cc1 -7.32%
O=C(NCc1ccccc1F)C(=O)NCC(c1ccco1)S(=O)(=O)c1cccs1 (centres undefined) -12.1%
CC1=C(C(=O)Nc2ccccc2)C(c2cccc(Cl)c2)n2nc(SCC(=O)c3ccc(C)cc3)nc2N1 (centres undefined) -0.659%
O=C(CSc1nc(-c2ccccc2)nc2c1Cc1ccccc1O2)N1CCCCC1 8.46%
Cc1ccc(Cn2c(=O)n(CCCCC(=O)NCc3ccccc3Cl)c(=O)c3ccccc32)cc1 -48.5%
O=c1[nH]c2ccc(NCc3ccc(-c4ccccc4)o3)cc2[nH]1 -32.2%
Cc1cccc(OCC(=O)Nc2ccccc2C(=O)OCc2cc(=O)n3nc(C)sc3n2)c1 -0.621%
CCOc1ccccc1Nc1sc(C(=O)c2ccccc2)c(N)c1S(=O)(=O)c1ccc(C)cc1 15.8%
O=C(Nc1ccc2oc(-c3ccc4ccccc4c3)nc2c1)c1ccc(Cl)c(Cl)c1 -9.02%
Cc1ccc(CCNC(=O)c2cc3c(-c4ccccc4F)nn(C)c3s2)cc1 -25.2%
COc1ccc(OC)c(NC(=O)c2cn(CC(C)C)c(=O)c3cc(OC)c(OC)cc23)c1 -26.5%
Cc1ccc(NC(=O)c2ccc(Br)cc2)c(C(=O)c2ccccc2)c1 -12.9%
Cc1nc2nc(SCC(=O)NCc3ccccc3)nn2c(C)c1Cc1ccccc1 -19.9%
CC(C)CC(=O)Nc1ccc(Cl)c(-c2nc3ccccc3[nH]2)c1 -17.7%
COc1ccc(OC)c(CNC(=O)CN2C(=O)CCn3nc(-c4cn(C)c5ccccc45)cc32)c1 -1.44%
N#Cc1ccc(NS(=O)(=O)c2ccc(-c3cnc(C4CC4)o3)cc2)cc1 -29.1%
CC(=O)Oc1ccccc1C(=O)O
CCc1cccc(NC(=O)CN2C=NS(=O)(=O)c3ccccc32)c1 -14.1%
CCOc1nc(NC(=O)NS(=O)(=O)Oc2ccccc2Cl)nc(-c2ccccc2)n1 29.9%
Cc1ccc(NC(=O)CCc2c(C)nc3nc(C)nn3c2C)c(Cl)c1 -13.2%
Cc1ccc(C)n1-c1nnc(N2CCCC(C(=O)NCc3ccccc3)C2)s1 (centres undefined) 3.55%
COc1cc2nc(NCC(C)c3ccccc3)n3nc(-c4ccccc4)nc3c2cc1OC (centres undefined) -6.89%
CNC(=O)c1ccc(Nc2nnc(-c3ccc(C)c(S(=O)(=O)N4CCOCC4)c3)c3ccccc23)cc1 14.6% [at 11.5 µM, percent change from vehicle, -100% = no light]
CCOC(=O)c1ccccc1NC(=O)N(Cc1ccco1)C1CCN(C(C)=O)CC1 -18.2%
Cc1ccc(N2CC(NC(=O)CCc3ccccc3)CC2=O)cc1 (centres undefined) -13.1%
COc1ccccc1C(=O)NC(=O)Nc1ccc(-n2nc(C(F)(F)F)cc2C(F)(F)F)cc1 -28.1%
CC1=C(C(=O)NCc2ccc(Cl)cc2)C2(CCCCCC2)OC1=O -31.8%
COc1cccc(CSc2nc3n(n2)C(c2cccnc2)C(C(=O)Nc2ccccc2C)=C(C)N3)c1 (centres undefined) -4.9%
COc1ccc(-c2ccc3c(N)c(C(=O)Nc4cccc(C)c4)sc3n2)cc1 -3.06%
COc1ccccc1C(=O)Nc1ccc(C(=O)OCc2cc(=O)n3ccsc3n2)cc1 24.2%
CCOC(=O)c1sc(NC(=O)c2cc3nc(-c4ccc(Br)cc4)cc(C(F)(F)F)n3n2)c(C(=O)OCC)c1C -32.5%
CCOC(=O)CCn1nc(C)c2c(C)n(-c3ccccc3)nc2c1=O -3.2%
Cc1cccc(N2CCN(C(=O)Cn3c(=O)c4cccn4c4ccc(F)cc43)CC2)c1C -2.59%
COc1cccc(NC(=O)c2cc3c(=O)n(Cc4cccnc4)ccc3nc2C)c1 -2.48%
Cc1ccc(-c2nc(S(=O)(=O)c3ccc(C)cc3)c(SCC(=O)NC3CCCCC3)o2)cc1 -0.116%
COc1ccccc1CNC(=O)CCC1N=C2c3ccccc3N=C(SCC(=O)NCCc3ccc(OC)c(OC)c3)N2C1=O (centres undefined) -30.2%
CCc1ccc(-c2cc(C)no2)cc1S(=O)(=O)Nc1ccc(Cl)cc1 -41.9%
COc1ccc(-c2noc(-c3ccc(NC(C)c4ccccc4)c([N+](=O)[O-])c3)n2)cc1OC (centres undefined) -6.42%
CCOc1ccccc1CN(CCc1ccc2c(c1)OCO2)Cc1cccc(OC)c1OC -41.4%
CN(C)c1ccc(NC(=O)CSC2=Nc3ccccc3C3=NC(CC(=O)NCc4ccccc4)C(=O)N23)cc1 (centres undefined) -8.21%
